In PubChem BioAssay AID652104 (National Center for Advancing Translational Sciences (NCATS), 2013):
Screen size: about 410,000 compounds; about 7,200 (1.8%) were called active. The shares of active, inactive and inconclusive entries below differ from those in the screen. The call rests on the fitted dose curve; in most records, active means well fitted activation curve with a large enough effect; inconclusive means small, poorly fitted or top-dose-only effect, or another doubt; inactive means no such curve, though single readings can be large or run the other way. A potency beside an inconclusive call is a rough fit, not a confirmed value.

Assay: qHTS of TDP-43 Inhibitors; further: nearly all actives have a fitted effect of over 50% in size; on growth rescue (activation): % of control where 0% means no effect
Conditions: TDP-43 expressing yeast growth rescue, BacTiter-Glo, 24 h; growth rescue (activation): at 46.1 µM (top of the series) unless noted
How it was run: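 Galactose-induced TDP-43 yeast, OD600=0.02, compound pinned; 24 hr, 30 deg C; BacTiter-Glo luminescence for growth. Inhibitors of TDP-43 toxicity read as activators.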
Potency means the concentration at half of the fitted maximal effect; tags describe the fitted curve by direction and shape.

Potency, inconclusive:
Cc1ccccc1/C(N)=N/OC(=O)N1c2ccccc2Sc2ccccc21 14.1 µM [activator, single point], CCOC(=O)CNC(=S)N(Cc1ccco1)Cc1ccccc1Cl 31.6 µM [activator, single point], COc1ccccc1C(=O)Nc1ccc2c(c1)n(C)c(=O)n2C 12.6 µM [activator, partial curve], Cc1cc(S(=O)(=O)NCC(c2ccco2)S(=O)(=O)c2cccs2)ccc1F (stereo not given) 1.12 µM [activator, partial curve], Cc1cccc(NC(=O)CS(=O)(=O)c2cccc3nsnc23)c1 0.562 µM [activator, full curve, poor fit], COc1ccc([C@H]2CC(=O)C[C@@H](CCn3cc(Cc4ccccc4)nn3)O2)cc1 8.91 µM [activator, partial curve], Cc1nc2ccc(S(=O)(=O)Nc3cccc(-c4nc5cccnc5s4)c3)cc2s1 35.5 µM [activator, single point], CC(=O)N1CCN(c2nc(C)nc3sc4c(c23)CCC(C)C4)CC1 (stereo not given) 20 µM [activator, single point], COc1ccc(C(C)=O)cc1CON=C1CSCc2ccccc21 31.6 µM [activator, partial curve], COc1cccc(NC(=O)CN(C)C(C)C(=O)NC(C)c2ccc(Cl)cc2Cl)c1 (stereo not given) 31.6 µM [activator, partial curve], CN(C)S(=O)(=O)c1ccc(N/C=C(\[N+](=O)[O-])S(=O)(=O)c2ccccc2)cc1 35.5 µM [activator, partial curve], Cc1nc(SC(C)C(=O)NCc2ccc3c(c2)OCO3)nc(C)c1C (stereo not given) 35.5 µM [activator, single point], CCC1SC(=NC(=O)c2ccc(Cl)c(Cl)c2)NC1=O (stereo not given) 17.8 µM [activator, single point], O=C(COC(=O)/C=C/c1ccc2c(c1)OCO2)NC1CC1 17.8 µM [activator, partial curve], COc1cc(N)c(Cl)cc1NC(=O)c1ccccc1 22.4 µM [activator, single point], C=CCN1C(=O)c2ccccc2NC1c1cc(Br)cs1 (stereo not given) 11.2 µM [activator, single point], C[C@H]1CCCCO[C@H](CN(C)Cc2ccncc2)[C@@H](C)CN([C@@H](C)CO)C(=O)c2cc(NS(=O)(=O)c3ccccc3)ccc2O1 1 µM [activator, full curve, poor fit], CC(=O)Oc1ccc2occ(-c3ccccc3)c2c1 6.31 µM [activator, single point], COc1cccc(CC(=O)N2CCN(S(=O)(=O)c3ccc(Br)cc3)CC2)c1 35.5 µM [activator, partial curve, poor fit], COC(=O)c1ccccc1NC(=O)CSc1nc(=O)cc(N)n1-c1ccccc1 35.5 µM [activator, single point], Cc1cccc(N2CCN(C(=O)N3CCCCC3)CC2)c1C 28.2 µM [activator, single point], CC(=O)c1cccc(NC(=O)COc2cc3oc(=O)c(CC(C)O)c(C)c3cc2Cl)c1 (stereo not given) 3.98 µM [activator, partial curve], Cc1ccc(C(=O)CSc2nnc(-c3ccco3)n2C)cc1 12.6 µM [activator, single point], CCCCNc1cc(=O)oc2ccccc12 35.5 µM [activator, single point], O=[N+]([O-])c1cccnc1NCc1cccs1 15.8 µM [activator, partial curve], CN(C)c1ccc(-c2ccnc3c2CC(C)(C(=O)NCc2cccc(Cl)c2)O3)cc1 (stereo not given) 35.5 µM [activator, single point], O=C(OCC(=O)N1CCCC1=O)c1cc(Cl)ccc1O 11.2 µM [activator, partial curve], COc1cccc(N2CCN(C(=O)c3cc4cc5cc(C)ccc5nc4s3)CC2)c1 6.31 µM [activator, single point], COc1ccc(-c2nc(CSCC(=O)NCCc3ccccc3)c(C)o2)cc1 31.6 µM [activator, single point], COC(=O)c1cccc(Nc2ccc([N+](=O)[O-])cn2)c1 2.82 µM [activator, full curve, poor fit], COc1ccc(N2CCN(CC(=O)Nc3sccc3C#N)CC2)cc1 0.501 µM [activator, full curve, poor fit], COc1ccccc1Nc1cc(C(=O)NC2CCC(C)CC2)c2ccccc2n1 (stereo not given) 3.16 µM [activator, partial curve], Cc1oc2ccc(O)cc2c1C(=O)OC(C)C 15.8 µM [activator, single point], CCCCS(=O)(=O)/C=C\C=C/S(=O)(=O)CCCC 3.98 µM [activator, partial curve], CC(=O)c1ccc(OCCOc2ccc(C#N)cc2)cc1 3.55 µM [activator, single point], O=C(CCn1c(=O)c2cccn2c2cccnc21)N1CCN(c2ccccc2F)CC1 3.55 µM [activator, partial curve], COc1cc(C)cc2oc(=O)c(CC(=O)NCCc3ccc(Cl)cc3)c(C)c12 5.62 µM [activator, full curve], O=C1CCC(C(=O)Nc2cccc3ccccc23)N1 (stereo not given) 3.16 µM [activator, single point], O=C(COCc1cc(-c2cccs2)on1)N1CCN(c2cccc(Cl)c2)CC1 28.2 µM [activator, single point], c1ccc(OCc2nc3ccccc3s2)cc1 12.6 µM [activator, partial curve], O=C(Nc1ccccc1F)c1ccc(CSc2ncccn2)cc1 3.55 µM [activator, partial curve], CCOC(=O)N1CCN(C(=O)c2ccc([N+](=O)[O-])cc2Cl)CC1 35.5 µM [activator, partial curve], O=C(CSc1ccccc1)N1CCCC(Nc2ccccc2)C1 (stereo not given) 31.6 µM [activator, single point], Cc1ccc(CCNS(=O)(=O)c2ccc3c(c2)CC(C)N3C(=O)C2CCC2)cc1 (stereo not given) 35.5 µM [activator, single point], COc1ccc(S(=O)(=O)N2CCN(C(=O)c3sccc3-c3ccccc3)CC2)cc1 35.5 µM [activator, partial curve], O=C(COC(=O)CCCOc1ccc(Cl)cc1Cl)NCc1ccccc1 31.6 µM [activator, single point], O=C(CNc1ccc(F)cc1)c1ccccc1 35.5 µM [activator, single point], COc1ccc(CC(=O)NCCc2csc(-c3cccc(C)c3)n2)cc1 7.08 µM [activator, partial curve]

Potency, active:
O=C(Nc1cccc(C(F)(F)F)c1)C1Cc2c(-c3cccc(F)c3)ccnc2O1 (stereo not given) 25.1 µM, N/C(=N\OC(=O)CCCOc1ccc(Cl)cc1Cl)c1ccccn1 14.1 µM, CC(=O)N1CCn2c3ccc(C)cc3c3cccc1c32 14.1 µM, Cc1nc2ccccn2c1C(=O)CSc1ccccc1Cl 35.5 µM, CCCCN(CC)C(=O)CSc1c2c(nc3ccc(Cl)cc13)CCCC2 22.4 µM, Oc1ccccc1CNc1cccc2cccnc12 14.1 µM, CCCn1nnc(NC(=O)c2ccc(-c3cccc(Cl)c3)o2)n1 12.6 µM, COc1ccc2cc(C(=O)NCc3ccc4c(c3)CCN4C(=O)c3ccc(F)cc3)[nH]c2c1 15.8 µM, CCCN(CCC)C(=S)NC(=O)c1ccc(-c2ccccc2)cc1 14.1 µM, Cc1oc(-c2ccccc2Cl)nc1Cn1c(SCc2cccc(F)c2)nc2cccnc21 17.8 µM

Potency, inactive:
COc1ccc(NC(=O)CSc2nnc(NC(=O)NC3CCCCC3)s2)cc1OC, c1ccc2c(c1)nc(N1CCOCC1)c1nncn12, CCn1cc(CN2CCCC(CO)(Cc3cccc(Cl)c3)C2)cn1 (stereo not given), Cc1ccccc1OCCn1c(-c2ccc(Cl)cc2)nc2ccccc2c1=O, CSc1ccc(S(=O)(=O)Nc2ccc(NC(C)=O)cc2)cc1, CCOc1ccc(NC(=O)c2sc3nc4c(c(-c5ccc(OC)cc5)c3c2N)C(=O)CC(C)(C)C4)cc1, O=C(OCc1cc(=O)n2nc(C3CCCCC3)sc2n1)c1ccc(F)cc1, Cc1cc(C)nc(NC2=NCC(=O)N2c2cc(Cl)cc(Cl)c2)n1, Nc1ccc(-c2nc3ccc(N)cc3[nH]2)cc1, C/C(=N/N=C/c1ccccc1O)c1ccccc1O, CCn1nnnc1SCC(=O)c1ccc(C)cc1C

Growth rescue (activation), inactive:
Cc1[nH]nc2c1C(c1ccc(O)cc1)C1=C(CC(C)(C)CC1=O)N2 (stereo not given) -26.1% [at 9.22 µM]
